The data scatter; read single values as rough.
test: amyloid nucleation score relative to library mode (yeast Sup35 reporter selection) (log enrichment difference); higher = more amyloid nucleation; sequences are the first 22 residues of the Bri2 peptide extended by up to 12 random residues; settings: random library (experiment): 1;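 active = nucleation score significantly above 0 at FDR 0.05; inactive = not significantly above 0 or absent from output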
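Further: [psi-pin-] Saccharomyces cerevisiae expressing SupN fusions, induced by 100 µM Cu2SO4, selected 7 d at 30 °C without adenine and uracil, scored by deep sequencing of output versus input.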

Sequence	amyloid nucleation score
EASNCFAIRHFENKFAVETLICTRVMGQNNGGVR	2.47
EASNCFAIRHFENKFAVETLICTRVSIEARIRTC	inactive
EASNCFAIRHFENKFAVETLICTRWRYRGGTYYF	2.99
EASNCFAIRHFENKFAVETLICTRYSWKILVRRT	inactive
EASNCFAIRHFENKFAVETLICTS	inactive
EASNCFAIRHFENKFAVETLICTSAHLEYALGGG	4.44e-16
EASNCFAIRHFENKFAVETLICTSALRGCTSRGW	inactive
EASNCFAIRHFENKFAVETLICTSARWRVSWLWK	inactive
EASNCFAIRHFENKFAVETLICTSAVTFNNNGVR	8.1
EASNCFAIRHFENKFAVETLICTSCD	inactive
EASNCFAIRHFENKFAVETLICTSCMCRC	3.37
EASNCFAIRHFENKFAVETLICTSFATPGPTGWC	3.49
EASNCFAIRHFENKFAVETLICTSGAKRDPVARR	inactive
EASNCFAIRHFENKFAVETLICTSHLSGAMLARG	inactive
EASNCFAIRHFENKFAVETLICTSIPECSGEGLS	inactive
EASNCFAIRHFENKFAVETLICTSLCS	3.26
EASNCFAIRHFENKFAVETLICTSLGVIVHFKWW	inactive
EASNCFAIRHFENKFAVETLICTSLL	2.1
EASNCFAIRHFENKFAVETLICTSLQLVASSLLS	inactive
EASNCFAIRHFENKFAVETLICTSLRSRLCGHCV	inactive
EASNCFAIRHFENKFAVETLICTSLVANPAVKES	inactive
EASNCFAIRHFENKFAVETLICTSMFDLGYVGGV	6.41
EASNCFAIRHFENKFAVETLICTSMVDY	inactive

same assay, conditions: random library (experiment): 2

Sequence	amyloid nucleation score
EASNCFAIRHFENKFAVETLICTRVSSIWFYH	inactive
EASNCFAIRHFENKFAVETLICTRWHNFHLDTGT	3.9
EASNCFAIRHFENKFAVETLICTRYALFFGNDLR	3.07
EASNCFAIRHFENKFAVETLICTRYLTHVFVTLC	inactive
EASNCFAIRHFENKFAVETLICTSDNTMFCVEVE	inactive
EASNCFAIRHFENKFAVETLICTSGACFY	6.59
EASNCFAIRHFENKFAVETLICTSGFRQGLQNRF	2.05
EASNCFAIRHFENKFAVETLICTSISDQAFVFVI	inactive
EASNCFAIRHFENKFAVETLICTSLFFHLRIFVV	inactive
EASNCFAIRHFENKFAVETLICTSLHLCIYVRCL	inactive
EASNCFAIRHFENKFAVETLICTSMCTLYSSC	2.31
EASNCFAIRHFENKFAVETLICTSNNVHMSGWRR	inactive

same assay, conditions: random library (experiment): 3

Sequence	amyloid nucleation score
EASNCFAIRHFENKFAVETLICTRVL	inactive
EASNCFAIRHFENKFAVETLICTSAMLDHRWAYL	4.22
EASNCFAIRHFENKFAVETLICTSCYSLAWHAGP	7.33
EASNCFAIRHFENKFAVETLICTSEFGDTKWRVG	2.14
EASNCFAIRHFENKFAVETLICTSFDFK	1.2
EASNCFAIRHFENKFAVETLICTSFQD	inactive
EASNCFAIRHFENKFAVETLICTSGGMPRTYEDS	inactive
EASNCFAIRHFENKFAVETLICTSGRVVDLGLRL	2.28
EASNCFAIRHFENKFAVETLICTSKPVPATSEGS	inactive
EASNCFAIRHFENKFAVETLICTSKRKTL	inactive
EASNCFAIRHFENKFAVETLICTSLANVGQVTWL	5.57
EASNCFAIRHFENKFAVETLICTSMIRKETLWEC	inactive
EASNCFAIRHFENKFAVETLICTSMRKLWWHTGA	inactive
